Laboratory results from paper PMC12820563, “FoxP3 forms a head-to-head dimer in vivo and stabilizes its multimerization on adjacent microsatellites”.
Some of the results follow.

The sequences below were run against T1, MBP-FoxP1dN (Mus musculus, UniProt P58462 326-579) (assay: PD-seq (MBP pull-down with sequencing); 20 mM Tris-HCl pH 7.5, 100 mM NaCl, 1.5 mM MgCl2, 0.4 uM protein, 0.1 uM dsDNA library, 30 min, room temperature, amylose pull-down; high values mean tight binding). Settings: protein: recombinant; tags: His6-MBP; chain copies: 2; dsDNA, one strand shown.
T1 sequence: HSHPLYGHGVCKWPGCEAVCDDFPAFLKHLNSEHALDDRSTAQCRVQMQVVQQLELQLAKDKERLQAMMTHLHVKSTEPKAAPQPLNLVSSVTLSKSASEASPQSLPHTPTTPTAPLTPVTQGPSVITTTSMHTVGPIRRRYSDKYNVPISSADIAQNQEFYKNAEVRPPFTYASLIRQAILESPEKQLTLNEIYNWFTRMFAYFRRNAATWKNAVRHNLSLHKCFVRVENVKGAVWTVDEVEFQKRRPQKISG
In short: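 The N-terminus-lacking fragment of mouse FoxP3 or FoxP1 carried a His6-MBP tag and was expressed in E. coli. At 0.4 µM it was incubated with 0.1 µM Klenow-filled degenerate double-stranded DNA library for 30 min at room temperature in Tris pH 7.5 buffer with NaCl and MgCl2, and complexes were caught on amylose resin, washed three times, released with proteinase K, PCR-barcoded and Illumina-sequenced. Binding is reads-per-million enrichment of pull-down over input with replicates pooled.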

| Sequence | binding signal |
| --- | --- |
| GATGATTGTTCTCCCAGCTGATGAATTGTTCAAGTCGAGTAAACAAATTTTCCTAATCTTTCTGTTCAAGCGCCATCTAC | 1.09 RPM ratio (pull-down/input) |
| GATGATTGTTCTCCCAGCTGATGAATTTCCAGAGTCGAGTAAACAAATTTTCCTAATCTTTCTGTTCAAGCGCCATCTAC | 0.756 RPM ratio (pull-down/input) |
| GATGATTGTTCTCCCAGCTGATGAATTGGGCCGGTCGAGTAAACAAATTTTCCTAATCTTTCTGTTCAAGCGCCATCTAC | 0.758 RPM ratio (pull-down/input) |
| GATGATTGTTCTCCCAGCTGATGAATTCTCGCGTTCGAGTAAACAAATTTTCCTAATCTTTCTGTTCAAGCGCCATCTAC | 0.935 RPM ratio (pull-down/input) |
| GATGATTGTTCTCCCAGCTGATGAATTCACGCCCTCGAGTAAACAAATTTTCCTAATCTTTCTGTTCAAGCGCCATCTAC | 0.928 RPM ratio (pull-down/input) |
| GATGATTGTTCTCCCAGCTGATGAATTGATTGAGTCGAGTAAACAAATTTTCCTAATCTTTCTGTTCAAGCGCCATCTAC | 1.04 RPM ratio (pull-down/input) |
| GATGATTGTTCTCCCAGCTGATGAATTTTCAGTCTCGAGTAAACAAATTTTCCTAATCTTTCTGTTCAAGCGCCATCTAC | 0.849 RPM ratio (pull-down/input) |
| GATGATTGTTCTCCCAGCTGATGAATTCTCGTTTTCGAGTAAACAAATTTTCCTAATCTTTCTGTTCAAGCGCCATCTAC | 1.04 RPM ratio (pull-down/input) |
| GATGATTGTTCTCCCAGCTGATGAATTGACAAAATCGAGTAAACAAATTTTCCTAATCTTTCTGTTCAAGCGCCATCTAC | 1.71 RPM ratio (pull-down/input) |
| GATGATTGTTCTCCCAGCTGATGAATTGGGGCTATCGAGTAAACAAATTTTCCTAATCTTTCTGTTCAAGCGCCATCTAC | 0.865 RPM ratio (pull-down/input) |
| GATGATTGTTCTCCCAGCTGATGAATTGGTGCGTTCGAGTAAACAAATTTTCCTAATCTTTCTGTTCAAGCGCCATCTAC | 1.04 RPM ratio (pull-down/input) |
| GATGATTGTTCTCCCAGCTGATGAATTCGTCAAGTCGAGTAAACAAATTTTCCTAATCTTTCTGTTCAAGCGCCATCTAC | 0.836 RPM ratio (pull-down/input) |
| GATGATTGTTCTCCCAGCTGATGAATTTGTCTCCTCGAGTAAACAAATTTTCCTAATCTTTCTGTTCAAGCGCCATCTAC | 1.04 RPM ratio (pull-down/input) |
| GATGATTGTTCTCCCAGCTGATGAATTCATCGGCTCGAGTAAACAAATTTTCCTAATCTTTCTGTTCAAGCGCCATCTAC | 0.797 RPM ratio (pull-down/input) |
| GATGATTGTTCTCCCAGCTGATGAATTTTCTGAATCGAGTAAACAAATTTTCCTAATCTTTCTGTTCAAGCGCCATCTAC | 0.937 RPM ratio (pull-down/input) |
| GATGATTGTTCTCCCAGCTGATGAATTAACCTGATCGAGTAAACAAATTTTCCTAATCTTTCTGTTCAAGCGCCATCTAC | 0.82 RPM ratio (pull-down/input) |

| Sequence | binding signal |
| --- | --- |
| GATGATTGTTCTCCCAGCTGATGAATTCAACGACTCGAGTAAACAAATTTTCCTAATCTTTCTGTTCAAGCGCCATCTAC | 0.648 RPM ratio (pull-down/input) |
| GATGATTGTTCTCCCAGCTGATGAATTAGGAGAATCGAGTAAACAAATTTTCCTAATCTTTCTGTTCAAGCGCCATCTAC | 0.99 RPM ratio (pull-down/input) |
| GATGATTGTTCTCCCAGCTGATGAATTGGCTGACTCGAGTAAACAAATTTTCCTAATCTTTCTGTTCAAGCGCCATCTAC | 0.801 RPM ratio (pull-down/input) |
| GATGATTGTTCTCCCAGCTGATGAATTTAACAGTTCGAGTAAACAAATTTTCCTAATCTTTCTGTTCAAGCGCCATCTAC | 0.857 RPM ratio (pull-down/input) |
| GATGATTGTTCTCCCAGCTGATGAATTGGAGAGCTCGAGTAAACAAATTTTCCTAATCTTTCTGTTCAAGCGCCATCTAC | 0.761 RPM ratio (pull-down/input) |
| GATGATTGTTCTCCCAGCTGATGAATTCATACCTTCGAGTAAACAAATTTTCCTAATCTTTCTGTTCAAGCGCCATCTAC | 0.918 RPM ratio (pull-down/input) |
| GATGATTGTTCTCCCAGCTGATGAATTGATTGACTCGAGTAAACAAATTTTCCTAATCTTTCTGTTCAAGCGCCATCTAC | 1.05 RPM ratio (pull-down/input) |
| GATGATTGTTCTCCCAGCTGATGAATTGTATCGTTCGAGTAAACAAATTTTCCTAATCTTTCTGTTCAAGCGCCATCTAC | 1.2 RPM ratio (pull-down/input) |
| GATGATTGTTCTCCCAGCTGATGAATTCCCGTTATCGAGTAAACAAATTTTCCTAATCTTTCTGTTCAAGCGCCATCTAC | 0.941 RPM ratio (pull-down/input) |
| GATGATTGTTCTCCCAGCTGATGAATTCGGTATCTCGAGTAAACAAATTTTCCTAATCTTTCTGTTCAAGCGCCATCTAC | 0.853 RPM ratio (pull-down/input) |
| GATGATTGTTCTCCCAGCTGATGAATTCTGTATATCGAGTAAACAAATTTTCCTAATCTTTCTGTTCAAGCGCCATCTAC | 1.67 RPM ratio (pull-down/input) |
| GATGATTGTTCTCCCAGCTGATGAATTTCCGATGTCGAGTAAACAAATTTTCCTAATCTTTCTGTTCAAGCGCCATCTAC | 0.953 RPM ratio (pull-down/input) |
| GATGATTGTTCTCCCAGCTGATGAATTCCCGCCCTCGAGTAAACAAATTTTCCTAATCTTTCTGTTCAAGCGCCATCTAC | 0.758 RPM ratio (pull-down/input) |
| GATGATTGTTCTCCCAGCTGATGAATTTTCTATTTCGAGTAAACAAATTTTCCTAATCTTTCTGTTCAAGCGCCATCTAC | 0.975 RPM ratio (pull-down/input) |
| GATGATTGTTCTCCCAGCTGATGAATTATCGACCTCGAGTAAACAAATTTTCCTAATCTTTCTGTTCAAGCGCCATCTAC | 0.931 RPM ratio (pull-down/input) |
| GATGATTGTTCTCCCAGCTGATGAATTGGAGTTGTCGAGTAAACAAATTTTCCTAATCTTTCTGTTCAAGCGCCATCTAC | 1.13 RPM ratio (pull-down/input) |
